From PubChem BioAssay AID602310 (National Center for Advancing Translational Sciences (NCATS), 2012)
In all, about 410,000 compounds went through this assay and about 310 (0.076%) were called active. Inconclusive results, whose numbers are uncertain, are shown with a selection of clear calls. Calls come from the whole dose curve; as a rule, active = well fitted curve in the direction sought with a large enough effect; inconclusive = small, poorly fitted or top-dose-only effect; inactive = flat fitted curve, though single readings scatter. A potency beside an inconclusive call is a rough fit, not a confirmed value.

Each molecule was assayed against DNA dC->dU-editing enzyme APOBEC-3G (Homo sapiens) (UniProt Q9HC16) (assay: qHTS for Inhibitors of Vif-A3G Interactions: qHTS). Conditions: HeLa A3G-eYFP + Vif (tagged APOBEC3G with the HIV-1 protein that degrades it), YFP fluorescence, overnight; series mostly up to 46.1 µM; activity, negative = active: at the top concentration.
Chain of UniProt Q9HC16 (Q9HC16 whole entry, looked up): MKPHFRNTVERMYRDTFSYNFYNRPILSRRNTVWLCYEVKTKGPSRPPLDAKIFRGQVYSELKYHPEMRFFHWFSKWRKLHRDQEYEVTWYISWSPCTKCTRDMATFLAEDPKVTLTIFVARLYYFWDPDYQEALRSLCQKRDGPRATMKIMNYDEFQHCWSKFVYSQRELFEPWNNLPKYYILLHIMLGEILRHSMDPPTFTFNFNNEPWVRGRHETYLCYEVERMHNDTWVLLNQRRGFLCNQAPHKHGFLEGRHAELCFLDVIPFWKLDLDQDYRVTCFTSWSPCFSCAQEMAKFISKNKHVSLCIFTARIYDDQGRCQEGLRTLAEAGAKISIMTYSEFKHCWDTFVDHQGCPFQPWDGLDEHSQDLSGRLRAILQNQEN
Source text: The recent discovery and characterization of host restriction factors, which provide a potent defense to invading retroviruses, has provided new targets for antiviral drug development. APOBEC3G (A3G) and APOBEC3F (A3F) are potent cytidine deaminases that block HIV-1 replication; HIV-1 expresses the Vif protein, which counteracts A3G and A3F by binding to them and inducing their proteasomal degradation. The Vif-A3G and Vif-A3F interactions provide two potential targets for development of small molecules which can interfere with the ability of Vif to degrade A3G or A3F. […] To identify inhibitors that can interfere with Vif mediated degradation of A3G and A3F, we have developed Hela cell lines that stably express A3G or A3F tagged with eYFP at the C-terminal end (A3G-eYFP or A3F-eYFP, respectively) and Vif. In the absence of an inhibitor, Vif induces degradation of A3G-eYFP and A3F-eYFP, and the cells are not fluorescent. In the presence of an inhibitor, it is expected that Vif will be unable to degrade A3G-eYFP and/or A3F-eYFP, resulting in an increase in yellow fluorescence. In this assays Vif A3G was screened against the Molecular Library Small Molecule Repository (MLSMR). NIH Chemical Genomics Center [NCGC] NIH Molecular Libraries Probe Centers Network [MLPCN] MLPCN Grant: MH093245 Assay Submitter (PI): Vinay Pathak, National Cancer Institute
5 uL of 700 cells/well of A3G-YFP cells are dispensed into black, clear bottom plates. The plates are incubated overnight at 37 deg C. 23 nL of compounds are added by pintool. The plates are incubated overnight at 37 deg C and then read on the TTP Acumen (Ex 488/ Em 500-530).
% is set by controls: 0 for no effect and ±100 for the full control effect; potency is the fitted concentration of half-maximal effect; tags give direction and shape of the fitted curve.
Note: nearly all actives have a fitted effect of over 60% in size.
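Throughout, for activity, negative = active: hits raise eYFP signal because A3G escapes Vif-driven loss.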

Row | Compound | Potency | activity, negative = active
1 | COCCN1C(=O)/C(=C/c2ccc(N3CCCC3)cc2C)SC1=S | inconclusive: 2.51 µM [inhibitor, full curve, poor fit] | –
2 | Cc1ccccc1NCC(=O)N/N=C/C(Br)=C/c1ccccc1 | inconclusive: 2.82 µM [inhibitor, full curve, poor fit] | –
3 | COc1ccc(C(=O)N/N=C(\C)c2ccccn2)cc1OC | inconclusive: 25.1 µM [inhibitor, single point] | –
4 | CC1=Nc2cc(C(=O)NC(C)C)ccc2Sc2ccc(C)cc21 | inconclusive: 2.51 µM [inhibitor, partial curve, poor fit] | –
5 | O=S(=O)(Nc1ccccc1)c1ccc(-c2csnn2)cc1 | – | inactive: -2.72%
6 | CC(=O)c1ccc(N2CCN(C(=O)C3CCC3)CC2)cc1 | – | inactive: -2.72%
7 | CC(C)OC(=O)c1cc(C(=O)c2cc(F)ccc2O)coc1=N | inconclusive: 17.8 µM [inhibitor, partial curve, poor fit] | –
8 | Cc1ccc(NC(=S)N/N=C2\CCCCC2C)cc1 (stereo unspecified) | inconclusive: 31.6 µM [inhibitor, single point] | –
9 | COc1ccc(CC(=O)N(Cc2ccccc2)c2ccc(C)cc2)cc1S(=O)(=O)N1CCOCC1 | inconclusive: 25.1 µM [inhibitor, single point] | –
10 | CCOC(=O)CC(NS(=O)(=O)c1ccc(OC)c(OC)c1)c1cccc([N+](=O)[O-])c1 (stereo unspecified) | – | inactive: -3.19%
11 | Cc1cccc(OCCN2C(=O)C(=O)c3cc(C)ccc32)c1 | inconclusive: 31.6 µM [inhibitor, single point] | –
12 | Cc1cc(N2C(=O)CC(Cc3ccc(Cl)cc3)C2=O)no1 (stereo unspecified) | – | inactive: -5.54%
13 | COc1ccc(C(=O)NCCCN=C2NS(=O)(=O)c3ccccc32)cc1 | – | inactive: 1.08%
14 | COC(=O)c1ccc(-n2c(C)cc(C(=O)CCl)c2C)cc1 | inconclusive: 35.5 µM [inhibitor, single point] | –
15 | C=CCOc1ccc(/C=C2/C(=O)ON=C2C)cc1OC | – | inactive: -9.24%
16 | COc1ccc(NC(=O)N(Cc2cc3ccc(OC)cc3[nH]c2=O)CC2CCCO2)cc1 (stereo unspecified) | inconclusive: 12.6 µM [inhibitor, partial curve, poor fit] | –
17 | CN(C)c1ccc(/C=C(\C#N)c2ccccn2)cc1 | – | inactive: -5.77%
18 | CC(C)OC(=O)CN1C(=O)S/C(=C/c2ccc(N3CCCCC3)o2)C1=O | inconclusive: 3.16 µM [inhibitor, partial curve, poor fit] | –
19 | CC(C)(C)c1csc(NC(=O)CCS(=O)(=O)c2ccc(F)cc2)n1 | inconclusive: 31.6 µM [inhibitor, single point] | –
20 | CCCCC(=O)NC(c1ccccc1Cl)c1ccc2cccnc2c1O (stereo unspecified) | – | inactive: -18.3%
21 | CCN(CC)c1ccc(/C=C2\C(=N)N3N=C(CC(=O)N4CCOCC4)SC3=NC2=O)cc1 | inconclusive: 1.26 µM [inhibitor, full curve, poor fit] | –
22 | COc1ccc(NC(=O)Cn2cc(C(=O)C3CCCCC3)c3ccccc32)cc1 | – | inactive: -2.53%

Row | Compound | Potency | activity, negative = active
23 | CCCN1CCc2c(sc(NC(=O)c3ccc(S(=O)(=O)N4CCN(C(=O)OCC)CC4)cc3)c2C(N)=O)C1 | inconclusive: 25.1 µM [inhibitor, single point] | –
24 | COc1ccccc1N1CC(O)=C(c2nc3ccccc3c(=O)[nH]2)C1=N | inconclusive: 35.5 µM [inhibitor, single point] | –
25 | Cc1ccc(C(=O)N/N=C/c2ccc(-c3cccc(C(F)(F)F)c3)o2)cn1 | inconclusive: 1.58 µM [inhibitor, full curve, poor fit] | –
26 | C#CCOCCOCCOCCNc1nc(N2CCN(C(=O)CCCCCCCCCCNC(=O)[C@@H](CCSC)n3cc(CCO)nn3)CC2)nc(N2CCN(C(=O)CCCCCCCCCCNC(=O)[C@H](CCSC)n3cc(CCO)nn3)CC2)n1 | – | inactive: 0.537%
27 | Oc1ccccc1C1C=C(c2ccc3c(c2)OCO3)NC(c2cccc(Br)c2)N1 (stereo unspecified) | inconclusive: 14.1 µM [inhibitor, single point] | –
28 | Cc1c(/C=N/NC(=O)c2ccc(O)cc2)c2ccccn2c1C(=O)c1ccc(F)cc1 | – | inactive: -12.9%
29 | CCN1C=C(Cc2ccc(F)cc2)C2=C(C1)C(c1ccc(F)cc1)C(C#N)=C(N)O2 (stereo unspecified) | inconclusive: 11.2 µM [inhibitor, single point] | –
30 | CCCCCNC(=O)CCn1c(=O)[nH]c2ccccc2c1=O | inconclusive: 11.2 µM [inhibitor, partial curve] | –
31 | CC(=O)N1c2ccc(Cl)cc2C2C=CCC2C1c1cccc2ccccc12 (stereo unspecified) | inconclusive: 15.8 µM [inhibitor, partial curve, poor fit] | –
32 | O=C(/C=C\c1cn(-c2ccccc2)nc1-c1ccccc1)Nc1nccs1 | inconclusive: 15.8 µM [inhibitor, single point] | –
33 | O=C(C[n+]1cccc2cccc(O)c21)c1ccc2ccccc2c1 | inconclusive: 17.8 µM [inhibitor, partial curve, poor fit] | –
34 | CCOC(=O)c1cc(-c2ccccc2)nn1Cc1cc(CC)no1 | – | inactive: -8.11%
35 | Clc1ccc(CNc2cc(-c3ccccc3)nc3nncn23)cc1 | – | inactive: 3.59%
36 | N#CC1=C(N)Oc2ccc3ccccc3c2C1c1cccnc1 (stereo unspecified) | inconclusive: 3.55 µM [inhibitor, partial curve, poor fit] | –
37 | Cc1cc(N2CCN(C)CC2)ccc1NC(=O)c1c2c(nc3ccccc13)CCN(Cc1ccccc1)C2 | inconclusive: 8.91 µM [inhibitor, partial curve] | –
38 | CCCCN1C(=O)C2Cc3c([nH]c4ccccc34)CN2C1=S (stereo unspecified) | active: 8.91 µM | –
39 | CCCCCCN(C(=O)CCl)c1ccccc1 | inconclusive: 35.5 µM [inhibitor, single point] | –
40 | CCOC(=O)c1c(CC(C)C)csc1/N=C/C1C(=O)CCCC1=O | inconclusive: 31.6 µM [inhibitor, single point] | –
41 | O=C(CCCn1ccc2cc(S(=O)(=O)N3CCCC3)ccc21)NCc1ccc(Cl)cc1 | inconclusive: 3.55 µM [inhibitor, partial curve, poor fit] | –
42 | COc1ccc(NS(=O)(=O)c2cc([N+](=O)[O-])ccc2N/N=C/c2c(C)[nH]c3ccccc23)cc1 | inconclusive: 2.51 µM [inhibitor, partial curve, poor fit] | –
43 | O=C(O)Cc1c(O)ccc2ccccc12 | – | inactive: 2.47%
44 | O=C(NCCCN1CCCC1)c1ccc2c(Cl)c3c(nc2c1)CCCC3 | – | inactive: 0.938%

Row | Compound | Potency | activity, negative = active
45 | COc1ccccc1NS(=O)(=O)c1cc([N+](=O)[O-])ccc1N/N=C/c1c[nH]c2ccccc12 | active: 11.2 µM | –
46 | N#C/C(=C\c1ccncc1)c1nc2ccccc2[nH]1 | inconclusive: 10 µM [inhibitor, partial curve, poor fit] | –
47 | O=C1CC(c2ccco2)CC2=C1C1c3ccccc3C(=O)N1c1ccccc1N2 (stereo unspecified) | – | inactive: -29.9%
48 | COc1ccc2nc(SCC(=O)N3CC(=O)Nc4ccccc43)c(C#N)cc2c1 | active: 10 µM | –
49 | COc1ccc(-n2c(-c3ccccc3)cc3c2CCCC3=O)cc1 | inconclusive: 17.8 µM [inhibitor, single point] | –
50 | CCOC(=O)C1CCCN(Cc2cn3c(-c4ccc(Br)cc4)nnc3s2)C1 (stereo unspecified) | inconclusive: 3.16 µM [inhibitor, full curve, poor fit] | –
51 | CCCCNc1c(-c2ccc(SC(C)CC)cc2)nc2ccccn12 (stereo unspecified) | inconclusive: 22.4 µM [inhibitor, single point] | –
52 | NC(=O)c1sc2nc(-c3ccco3)ccc2c1N | inconclusive: 14.1 µM [inhibitor, single point] | –
53 | Nc1cccn2c(-c3ccc(Cl)cc3)cnc12 | inconclusive: 11.2 µM [inhibitor, single point] | –
54 | Cc1cc(C)c(C)c(S(=O)(=O)N2CCNCC2)c1C | – | inactive: 5.52%
55 | CCCCNc1c(-c2ccc(SC(C)CC)cc2)nc2cnccn12 (stereo unspecified) | inconclusive: 0.631 µM [inhibitor, full curve, poor fit] | –
56 | NNC(=O)c1[nH]c2ccc(Cl)cc2c1-c1ccccc1 | inconclusive: 22.4 µM [inhibitor, single point] | –
57 | CC(=O)Nc1ccc(CNc2nc(NCCN(C)C)nc3cc(-c4ccccc4)sc23)cc1 | inconclusive: 25.1 µM [inhibitor, single point] | –
58 | COc1ccc(-c2nnc(Nc3nc4c(OC)cccc4s3)o2)cc1 | inconclusive: 35.5 µM [inhibitor, single point] | –
59 | Cc1ccc2c(c1)[C@H]1[C@H](CO2)[C@H](c2ccccc2)[C@]2(C)C(=O)Nc3cc(F)c(F)cc3C(=O)N12 | inconclusive: 7.08 µM [inhibitor, partial curve, poor fit] | –
60 | COc1ccc(N2C(=O)C(CC(=O)Nc3ccccc3)N(CCC3=CCCCC3)C2=O)cc1 (stereo unspecified) | – | inactive: -2.9%
61 | CS(=O)(=O)Nc1ccc(C2=NN(S(C)(=O)=O)C(c3ccc4c(c3)OCO4)C2)cc1 (stereo unspecified) | inconclusive: 17.8 µM [inhibitor, partial curve, poor fit] | –
62 | CCOc1ccccc1N1CCN(C(=O)c2cc(-c3cccnc3)nc3c(Cl)cccc23)CC1 | inconclusive: 3.16 µM [inhibitor, full curve, poor fit] | –
63 | N#C/C(=C/c1ccc(N2CCCCCC2)o1)c1cccc(F)c1 | inconclusive: 7.08 µM [inhibitor, partial curve, poor fit] | –
64 | N#CCC(=O)N/N=C/c1ccc(N2N=C(c3ccccc3)CC2c2ccccc2)cc1 (stereo unspecified) | inconclusive: 22.4 µM [inhibitor, partial curve, poor fit] | –
65 | Cc1cc(=O)oc(C)c1C(=O)Nc1c(C)n(C)n(-c2ccccc2)c1=O | – | inactive: -0.165%
66 | Cc1ccc(NC(=O)CN2C(=O)N/C(=C/c3ccc(C)s3)C2=O)cc1 | inconclusive: 17.8 µM [inhibitor, single point] | –
